Assay results published in the supplement of paper PMC3334620.
Whole data set: some 33,000 sequences, median “E-score (-0.5 to 0.5)” near -0.054, cut for the highest 2% near 0.39. This is one part of the list.

biological target: Ylr278c (UniProt Q05854); assay: PBM E-score (8-mer binding enrichment) (E-score (-0.5 to 0.5)); higher = stronger / more preferred TF binding; most listed sequences are background and not binding sites; settings: protein concentration: 200 nM; construct: GST-DNA-binding domain
Outline: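 Yeast transcription factors, full-length or as DNA-binding domains, were expressed with a GST tag using PURExpress in vitro transcription/translation. At about 100-200 nM they were applied to universal all-10-mer Agilent arrays, double-stranded by primer extension on fresh or once-stripped slides. Fluorescent anti-GST detected bound protein, and masliner normalised the scans. E-scores for ungapped eight-base words, pooled with reverse complements, came from the Universal PBM Analysis Suite.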

Sequence | PBM E-score
CCTTGAGC | -0.214
CAAGAATA | 0.0577
ATCTACGC | 0.181
TGGTAGAA | -0.169
TAAAAGAA | -0.213
CCCTACCG | -0.00523
CATACTGC | -0.113
CAGGCGGG | 0.084
AACAGTCA | -0.258
ACAGTCAT | -0.24
ACCGCTCC | 0.172
AGTGGCAC | -0.174
CGGTAACC | 0.147
GTTCAAAC | 0.0451
ATGAAGAG | -0.0752
ATGACTCA | -0.267
CTTCGAAA | -0.221
AAGTGAGG | -0.242
TCCGACAA | 0.39
CCTGCCAC | -0.181
CTTTTCGC | 0.191
TCAAAACA | 0.00964
AATTTGTC | -0.0687
ATGCTCTA | -0.163
TATAAGAA | -0.0902

Sequence | PBM E-score
CGGGTGAG | 0.167
GAATGAAA | 0.0519
CTTATAAG | 0.0589
ACTAGATG | -0.252
CGGTGTCA | 0.0635
AACACTCC | 0.248
AAAGCTCC | 0.182
AACGGGTG | 0.107
CCCCGGCG | 0.348
ACCCGCTG | 0.0701
CTCCGACC | 0.458
CAACTCCG | 0.486
AGCTAAGC | -0.164
ATCCGCAA | 0.193
AACGTAGA | -0.0968
CTCTTGCC | -0.0784
AAACGGGC | 0.00361
TCACTCAA | -0.2
GCTTACCC | -0.23
ATATTTCG | 0.14
AAGTATGC | -0.23
ATGCCGTC | 0.219
GCTTAATA | -0.0998
ATGGTCTG | -0.143
CATTCGAA | -0.0389

Sequence | PBM E-score
ATTCGTTG | 0.0525
GATGGGAC | 0.195
GATGTAAC | 0.0353
CGGGAGCC | 0.0673
CCTGTCCG | 0.141
CCTGCTTC | -0.0852
CATATGCA | -0.109
GGAAGGCC | 0.199
GTGCAAAC | -0.0686
ACCCAAAG | -0.137
GTGTAGCA | -0.286
CGTCAACA | -0.131
AGCTTAGA | -0.142
AGGTGATA | -0.199
CAAGAGTG | -0.175
TACGAAGA | -0.146
AGCTTACT | -0.136
AAGGCAGC | -0.0879
ACATATTG | -0.277
CACCCGGG | 0.199
CCAGAAAG | 0.0257
CAGCAACA | 0.0587
ATCAATCG | -0.0159
AGGCACCC | -0.229
CCGGGCAC | 0.385

Sequence | PBM E-score
CGATGGTC | -0.126
ATTCGGAG | 0.422
CCTTGTAG | -0.13
CATAATGA | -0.0996
GGGCCCGA | 0.244
GAAGTCAC | -0.0697
CTCTCAAG | -0.0889
ATTGTGCA | -0.021
ATCGACTG | -0.0552
TATTTACA | -0.188
CTCCCCCC | -0.191
AGCTCTTC | 0.121
AATGTACG | -0.121
AAGACAAT | -0.0338
CCTTCTAC | -0.183
AGTATAGA | 0.0233
ACAGTTCC | 0.278
CGCGGCCG | 0.251
GTGCTTCA | -0.111
ACGCCCCA | 0.137
CTTCTTGC | -0.109
GGGAAGCA | -0.0458
CGCCAGCC | 0.153
ACACTGGC | -0.139
CGGCGGAC | 0.411

Sequence | PBM E-score
CGTTCCAG | -0.193
TACAGAGA | -0.221
GCAACTGC | 0.0356
CCAGAGAA | -0.162
ACTTGGGG | 0.0438
AATGCCCA | -0.203
ATCTCGGC | 0.354
GCCCATTA | -0.195
CAAAAAAC | -0.0175
GACAAACC | -0.0781
ACAATAAG | -0.0171
GATCCACA | -0.0592
AAATTCCG | 0.471
TGCCGGAA | 0.435
GCTGTTTA | -0.018
GACGACTA | -0.319
ACACTATC | 0.00097
TCACACCA | -0.134
CCTCTCCA | -0.351
CAGAATGC | 0.153
AGCCGGTC | 0.134
CGTCTTCA | 0.00371
ACGGGTGA | 0.138
GCCCACGC | -0.0457
CATAATTC | 0.075

Sequence | PBM E-score
ACGAGTCA | -0.285
AAATGTAC | -0.103
TAAACTAA | 0.0158
CGAAGAAA | 0.184
AGTGATCC | -0.0556
CCGGGAGA | 0.362
CCCCAGTA | 0.0299
GTCTTAAC | -0.296
CAATTTAC | -0.0357
ATAGGCTC | -0.0304
CCAAGAGC | -0.214
CCGAAACG | 0.278
CGTAGTGC | -0.0731
GATATGCC | 0.0319
CGAGAACA | 0.118
CCGTGGTC | 0.129
GGAAGCCA | 0.0617
CCGCACCA | 0.23
CCGAGCAA | 0.268
CAGATAGA | -0.201
CCAGCCAA | -0.0223
AGCTCACT | -0.215
AGTTCGTG | -0.0935
CGTTGCTA | -0.0591
CTTAACGA | -0.0439

Sequence | PBM E-score
CGTGTTGA | -0.173
AGCTATCG | -0.0675
CGCGGCAA | 0.303
GTACTTGA | -0.122
CCTCGTAG | -0.35
ACTACATG | -0.118
ATTTCATA | -0.0705
GTCAGGCA | -0.0616
ACAAAGAG | -0.197
CAGTCGGC | 0.272
CGGATACG | 0.274
ATCTACGG | 0.264
CAGTGATG | -0.338
AAAAAATC | 0.0685
GGGGGGAC | -0.209
CCGCTGAG | 0.115
ACTTGGAC | 0.0757
ACCTTCTC | 0.143
ACCTGCCG | -0.0458
AGACATAG | -0.00079
TCAATGAA | -0.219
AGCGGCTA | 0.1
